The other results are listed elsewhere or left out.
T1: UNK ZnF1-3 (human, UniProt Q9C0B0 31-174)
T1 sequence: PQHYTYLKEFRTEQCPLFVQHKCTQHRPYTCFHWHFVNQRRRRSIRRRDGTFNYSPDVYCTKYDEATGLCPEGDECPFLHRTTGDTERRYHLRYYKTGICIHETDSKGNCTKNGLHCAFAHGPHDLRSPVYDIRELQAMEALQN

B1: chr16:45382771:45382772:-_ENSMUSG00000022661_ENSMUST00000163230|mus_mus|mus_mus_mus_hu_True|38_58 (ssRNA)
RNA: GGGAGUUCUACAGUCCGACGAUCCUGGGUCAUGUUAUAAGACAAAUGGACAGGGAGGGCAUGCUUCUCAAAAAAUGUGAACUACUCUCUAAGACUAACAAUAUUGCUCUAGCUAUAAAAAUAAGUUAAAUGAAUAAGUUAAGACAACAGAGGAUUGAGCAUCA
B2: chr12:39763582:39763583:-_ENSG00000139116_ENST00000544797|hu_mus|hu_hu_hu_mus_False|8_88 (ssRNA)
RNA: GGGAGUUCUACAGUCCGACGAUCCUCUAGGAACUGGGCAUUCACUUUAAAAUCUGGAGGGGGCAGCCCGUUUUUAAUCGCUGAGGUCUUUUUCUCAUCAAUACUCUUGAACAGGUGUCUAACAGCACGAGAAAUAAUGCCCUGCAACAGAGGAUUGAGCAUCA
B3: chr15:103030146:103030147:-_ENSMUSG00000009575_ENSMUST00000118152|mus_hu|motif|central (ssRNA)
RNA: GGGAGUUCUACAGUCCGACGAUCUUUGUUUUCCGCAUCCUCAGGAUAUGCAUGCCAUGUCAGUCUCUCUUCAUAAAAUGCGGUCACAAUUUGUGGACAUUUCACAUUAGCUUCUUUUGCAAGAACCAGGUCAGCUUCAUCUGUCAACAGAGGAUUGAGCAUCA
B4: chr1:60041781:60041782:+_ENSMUSG00000041040_ENSMUST00000036540|mus_hu|mus_mus_mus_hu_False|8_88 (ssRNA)
RNA: GGGAGUUCUACAGUCCGACGAUCAAGUUUACAAUAGUAAAGUAAAUCAAAUUUAGUCAAAUUUUCUUUUAUUUUCCUUCACAAAAGAAAAUCUUUAUAACCCAGUCCUAGUCUUGGACAUAGUGAAUCUCCAUGGGUCUGACUCAACAGAGGAUUGAGCAUCA
B5: chr16:38090358:38090359:+_ENSMUSG00000022812_ENSMUST00000023507|mus_hu|FALSE|FALSE (ssRNA)
RNA: GGGAGUUCUACAGUCCGACGAUCCCUUCAAGACAGAUCGGCACGGAUAUUUAACAUAUAGAUGAUUUAGGACUUGGGAAAAAAUACAAUUCUUUCCCCUCCCUUUCCUGGGAGGAGAGAAAAGAGAGGGCAAAUCCUAAAAAACAACAGAGGAUUGAGCAUCA
B6: chr6:38652254:38652255:-_ENSG00000124767_ENST00000373365|hu_hu|hu_hu_hu_mus_False|48_48 (ssRNA)
RNA: GGGAGUUCUACAGUCCGACGAUCCGAGAACUUCAUAGCAGGGAAGUCAAGCUUCUGCAGGAGGGUCAGUCCAAGAACCCUCGUAUAAAAAUCCAGUGACUUCUUAGGAUCCUUAAUUCUUAGCAUCGUUUGCUGCAGUAGAAACAACAGAGGAUUGAGCAUCA
B7: chr1:39494564:39494565:+_ENSG00000168653_ENST00000372967|hu_hu|hu_hu_hu_mus_True|8_8 (ssRNA)
RNA: GGGAGUUCUACAGUCCGACGAUCAUGCAUUCGCCUCAUCGUUUUGUACCGAAGCAAGCACUCUUCGAAGUCAUCGAACUCUAUCUUGCACUCCUUUUUCGCCCGGGUCCCACCGAUCCCGUGUGCACAUUCUAUCCACUCUUUCAACAGAGGAUUGAGCAUCA
B8: chr17:45747064:45747065:+_ENSG00000108424_ENST00000290158|hu_hu|hu_hu_hu_mus_True|18_18 (ssRNA)
RNA: GGGAGUUCUACAGUCCGACGAUCGCCCACAGUCCACGCUGUUGUGUCUCGAACAACUACACUGGGGUCUUUCAUUAGUUCUAUUAGGGUGGGCAUAGCCUGUAUGACUAAUGGUUUGAGCUGACUGGGCUCUGGUCCUUCCAACAACAGAGGAUUGAGCAUCA
B9: chr1:150204246:150204247:-_ENSG00000143401_ENST00000314136|hu_hu|FALSE|FALSE (ssRNA)
RNA: GGGAGUUCUACAGUCCGACGAUCGAAAGUAUCAUUCAGGCCUUCAAUUUCCCCAUUGACACACAGGCAAUUAUCAAGGACUAACUCUGUCACCUCCUCCGGGGAUCUGUUCCUUAACUCCAGGUUAAUCUUCUUCUUCAUCUCCAACAGAGGAUUGAGCAUCA
B10: chr4:48207216:48207217:-_ENSMUSG00000028343_ENSMUST00000030028|mus_mus|FALSE|FALSE (ssRNA)
RNA: GGGAGUUCUACAGUCCGACGAUCGUGGCAGUGUAAGUUAACGGCGUGCUUCCGGCAAUGCCACCUUCCGCUUGCAUGAUAAAGACUGUCCAGGACAGAUUUAAAGUGGAGACAGGCCUCUGGUUUUUAUUUUGUUCUUUAAAACAACAGAGGAUUGAGCAUCA
B11: 142151363_142153690_750_CDS_ENSG00000109445_ENST00000262990|human|control|control (ssRNA)
RNA: GGGAGUUCUACAGUCCGACGAUCACAGAAACAAGCCUUACAACGGAGACAUGAGUGCUGACCAAGCCGAUUGCAUGAAACACAUUUAAAUGUUUCUGCCUCUAAAACCUGGCAGCUGGCUUGAUGCUCAAAUUGAUCAUCUUCCAACAGAGGAUUGAGCAUCA
B12: chr5:108714765:108714766:-_ENSG00000198961_ENST00000361557|hu_mus|FALSE|FALSE (ssRNA)
RNA: GGGAGUUCUACAGUCCGACGAUCACAAACUGCUGGAGUAUGCUCUGUCUCAGUGCGAUUAUGAAGGUUUGUAUUGCUUUCUAAGGUCUCCCUGACUUCCUCACUAUGACAUACUGUGGCAAUGGAUGGACUGCUCUCAGUGCUCAACAGAGGAUUGAGCAUCA
B13: 87057791_87057911_813_CDS_ENSMUSG00000046442_ENSMUST00000055438|mouse|control|control (ssRNA)
RNA: GGGAGUUCUACAGUCCGACGAUCAAAGUCAGGAAUGCAGACGUGUUUGUCCUCCAUUUUCCUUCGCAUGUUCUUGAUGGCAUGAAUUGACGUCUCAUAAUAAAUCUGAGGCCUCCUGCGCAGAGGGAAGUCCUUCACCCAACUCAACAGAGGAUUGAGCAUCA
B14: chr19:53454881:53454882:-_ENSMUSG00000025024_ENSMUST00000025997|mus_mus|FALSE|FALSE (ssRNA)
RNA: GGGAGUUCUACAGUCCGACGAUCGUUUCAUUCUACCAAAGCCAAACAAUGACAACAAUGUAUCUUCCUUACUCAGCAUCUAAGCAAUCAGUUACCUUUAGAAAAAUACAAGGAUAAAAAGGAGAGUGUAAAGUAAAGCCCUGCCAACAGAGGAUUGAGCAUCA
B15: chr4:110384322:110384323:+_ENSG00000138802_ENST00000265175|hu_mus|FALSE|FALSE (ssRNA)
RNA: GGGAGUUCUACAGUCCGACGAUCGUAGGGCUGGGAGGCACUCGAAUAGGAAUGGGAUGCUGAUGCUGGAAUUCCUUGGAAAGAUCCGGGCAUGGAGCCCCCCAUGUGAGGAGCGGAAGGACCUCUGCCAUACAUCUGCUGUGCCAACAGAGGAUUGAGCAUCA
B16: 155305557_155306525_3075_CDS_ENSMUSG00000042699_ENSMUST00000042141|mouse|control|control (ssRNA)
RNA: GGGAGUUCUACAGUCCGACGAUCGAUAACAACAUCCAAAUUAUUAUCUGGUCCAGUGUUAGUAAACACUUGUGUCAAUAAACAAUCUUCGGGAAAUCCAGAGUUAAUCAGAAUCUCUUUAAGCUGUACUUUGGCCUCCCAAGUCAACAGAGGAUUGAGCAUCA
B17: 129203514_129217221_856_CDS_ENSMUSG00000036155_ENSMUST00000038361|mouse|control|control (ssRNA)
RNA: GGGAGUUCUACAGUCCGACGAUCCAGGAUGUUAUCCAGCAAGACGGCGAGCGUUUUCUUCAGAUCAUAGGCUGUCAUGACACCAGCGUAGGGGCCAUCCACCACGUCCCUGUUCUCCUCUGCCAGUGCCUUAAUGUACCUCUUCAACAGAGGAUUGAGCAUCA
B18: chr1:163117127:163117128:-_ENSG00000143248_ENST00000313961|hu_mus|hu_hu_hu_mus_False|68_78 (ssRNA)
RNA: GGGAGUUCUACAGUCCGACGAUCUGCUACAAAGGAUGUAACUCAACUCACAGGGCAUGAUUUCAUAGCCUGGCUAAAUGACUACUUGAUUAGCUCCUUAUAAAAUUCAGAGCGCACAAAGCGGGGCAGAGAAUCCUUCUCCAUCAACAGAGGAUUGAGCAUCA
B19: 103636980_103637622_244_CDS_ENSMUSG00000027184_ENSMUST00000028607|mouse|control|control (ssRNA)
RNA: GGGAGUUCUACAGUCCGACGAUCAUGCUGAGAAGCCGGCGCAGCUGCCCCGGCCGCCGCCUCACUCCCGGAGGAACCGGACGGCGGCGGCGGUCCCGACGAUUUGCUGCCGCUUCCGCUGUGGCUGGUGGCCGAGGGCAUCGUCAACAGAGGAUUGAGCAUCA
B20: chr4:144460044:144460045:+_ENSG00000153147_ENST00000283131|hu_mus|hu_hu_hu_mus_False|18_18 (ssRNA)
RNA: GGGAGUUCUACAGUCCGACGAUCACGGUCCAUAGCCUGAAGAUCAACUUGCGGAUUCCAAUCUGAGUCAUAUAAAAUGACUACAUCAGCAGUUGCAAGAUUGAUGCCCAGACCACCAGCACGCGUGCUUAGCAUAAAUACAAACAACAGAGGAUUGAGCAUCA
B21: chr4:95690885:95690886:+_ENSMUSG00000028572_ENSMUST00000156910|mus_mus|mus_mus_mus_hu_False|58_88 (ssRNA)
RNA: GGGAGUUCUACAGUCCGACGAUCUUUAGAAAAUGUUAAAUACCAUGAGCAUGCUAAUUCAAAGGCUUAUUUUAUUUUACUAAAAGACACAGGCAAGCAGACACUACAAGAAUAUAUGAAAAUGAAACUCAACAAUAUAACUGUCAACAGAGGAUUGAGCAUCA
B22: chr8:42798479:42798480:+_ENSG00000168172_ENST00000307602|hu_hu|motif|central (ssRNA)
RNA: GGGAGUUCUACAGUCCGACGAUCAGAAUGCUCCCCAAUAAGGUUCACAUCAGGAAGGGUAAAGUCAUUAAUUUGCUGUCCGGAAAUCUCAUGAUUAUAAUCCAAGAUUCCUUUUAAAAUUUUCUUUAAAUUGCUUAUCUUUAGCAACAGAGGAUUGAGCAUCA

molecular target: T1, UNK ZnF1-3; test: nsRBNS (natural sequence RNA bind-n-seq); RBNS binding buffer (assumed for nsRBNS): 25 mM Tris pH 7.5, 150 mM KCl, 3 mM MgCl2, 0.01% Triton X-100, 500 ug/ml BSA, 20 U/ml SUPERase-In, 4 C; UNK is unkempt and MSI1 is Musashi-1; names of the RNAs are library labels; protein concentration not given here; high values mean tight binding

Row | Binder | binding signal [enrichment R]
1 | B1 | 2.29
2 | B2 | 1.81
3 | B3 | 0.722
4 | B4 | 0.653
5 | B5 | 0.982
6 | B6 | 0.956
7 | B7 | 0.585
8 | B8 | 0.626
9 | B9 | 0.934
10 | B10 | 0.857
11 | B11 | 0.839
12 | B12 | 0.773
13 | B13 | 0.588
14 | B14 | 1.64
15 | B15 | 1.19
16 | B16 | 0.857
17 | B17 | 0.43
18 | B18 | 0.967
19 | B19 | 0.733
20 | B20 | 1.03
21 | B21 | 1.97
22 | B22 | 1.52

From article PMC12136788
